# Experimental data reported in the supplement of paper PMC8728848.
# Some of the results follow.
# B1: SSA (Sclerotinia sclerotiorum), A7XUK7 (protein)
# chain: MGFKGVGTYEIVPYQAPSLNLNAWEGKLEPGAVVRTYTRGDKPSDNAKWQVALVAGSGDSAEYLIINVHSGYFLTATKENHIVSTPQISPTDPSARWTIKPATTHQYEVFTINNKVSELGQLTVKDYSTHSGADVLSASAKTADNQKWYFDAK
# Experiments:
# Test in all cases: glycan array binding signal (z-score within array); higher = stronger binding
# Conditions in all cases: glycan notation: IUPAC condensed, linker removed
# [1] = biological target: GalNAc(b1-4)GlcNAc
# In short: (§1)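 The Consortium for Functional Glycomics database supplied 3228 glycan arrays, of which those lacking an available protein sequence were dropped. The binding signal, a within-array Z-score, was averaged across arrays of the same protein sequence and across linkers. Negative scores can be read as non-binding.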
# [2] = biological target: GalNAc(b1-4)GlcNAc(b1-2)Man(a1-3)[GalNAc(b1-4)GlcNAc(b1-2)Man(a1-6)]Man(b1-4)GlcNAc(b1-4)GlcNAc
# In short: as §1
# [3] = biological target: Glc(a1-4)Glc
# In short: as §1
# [4] = biological target: Glc(a1-6)Glc(a1-6)Glc
# In short: as §1
# [5] = biological target: Glc(b1-4)Glc
# In short: as §1
# [6] = biological target: Glc(b1-6)Glc
# In short: as §1
# [7] = biological target: GlcA(b1-3)Gal
# In short: as §1
# [8] = biological target: GlcA(b1-3)GlcNAc
# In short: as §1
# [9] = biological target: GlcA(b1-6)Gal
# In short: as §1
# [10] = biological target: GlcNAc(a1-3)Gal(b1-4)GlcNAc
# In short: as §1
# [11] = biological target: GlcNAc(a1-4)Gal(b1-3)GlcNAc
# In short: as §1
# [12] = biological target: GlcNAc(a1-4)Gal(b1-4)GalNAc
# In short: as §1
# [13] = biological target: GlcNAc(a1-4)Gal(b1-4)GlcNAc
# In short: as §1
# [14] = biological target: GlcNAc(a1-4)Gal(b1-4)GlcNAc(b1-3)Gal(b1-4)Glc
# In short: as §1
# [15] = biological target: GlcNAc(a1-4)Gal(b1-4)GlcNAc(b1-3)Gal(b1-4)GlcNAc
# In short: as §1
# [16] = biological target: GlcNAc(a1-4)Gal(b1-4)GlcNAc(b1-3)Gal(b1-4)GlcNAc(b1-3)Gal(b1-4)GlcNAc
# In short: as §1
# [17] = biological target: GlcNAc(a1-4)Gal(b1-4)GlcNAc(b1-3)Gal(b1-4)[Fuc(a1-3)]GlcNAc(b1-3)Gal(b1-4)[Fuc(a1-3)]GlcNAc
# In short: as §1
# [18] = biological target: GlcNAc(a1-6)Gal(b1-4)GlcNAc
# In short: as §1
# [19] = biological target: GlcNAc(b1-2)Gal(b1-3)GalNAc
# In short: as §1
# [20] = biological target: GlcNAc(b1-2)Man(a1-3)[GlcNAc(b1-2)Man(a1-6)]Man(b1-4)GlcNAc(b1-4)GlcNAc
# In short: as §1
# [21] = biological target: GlcNAc(b1-2)Man(a1-3)[GlcNAc(b1-2)Man(a1-6)]Man(b1-4)GlcNAc(b1-4)[Fuc(a1-6)]GlcNAc
# In short: as §1
# [22] = biological target: GlcNAc(b1-3)Gal
# In short: as §1
# [23] = biological target: GlcNAc(b1-3)Gal(b1-3)GalNAc
# In short: as §1
# [24] = biological target: GlcNAc(b1-3)Gal(b1-4)Glc
# In short: as §1
# [25] = biological target: GlcNAc(b1-3)Gal(b1-4)GlcNAc
# In short: as §1
# [26] = biological target: GlcNAc(b1-3)Gal(b1-4)GlcNAc(b1-3)Gal(b1-4)GlcNAc
# In short: as §1
# [27] = biological target: GlcNAc(b1-3)GalNAc
# In short: as §1
# [28] = biological target: GlcNAc(b1-3)Man
# In short: as §1
# [29] = biological target: GlcNAc(b1-3)[GlcNAc(b1-4)][GlcNAc(b1-6)]GlcNAc
# In short: as §1
# [30] = biological target: GlcNAc(b1-3)[GlcNAc(b1-6)]Gal(b1-4)GlcNAc
# In short: as §1
# [31] = biological target: GlcNAc(b1-3)[GlcNAc(b1-6)]GalNAc
# In short: as §1
# [32] = biological target: GlcNAc(b1-3)[GlcNAc(b1-6)]GlcNAc(b1-4)GlcNAc
# In short: as §1
# [33] = biological target: GlcNAc(b1-4)Gal(b1-4)GlcNAc
# In short: as §1
# [34] = biological target: GlcNAc(b1-4)GlcNAc
# In short: as §1
# [35] = biological target: GlcNAc(b1-4)GlcNAc(b1-4)GlcNAc
# In short: as §1
# [36] = biological target: GlcNAc(b1-4)GlcNAc(b1-4)GlcNAc(b1-4)GlcNAc(b1-4)GlcNAc
# In short: as §1
# [37] = biological target: GlcNAc(b1-4)GlcNAc(b1-4)GlcNAc(b1-4)GlcNAc(b1-4)GlcNAc(b1-4)GlcNAc
# In short: as §1
# [38] = biological target: GlcNAc(b1-4)[GlcNAc(b1-6)]GalNAc
# In short: as §1
# [39] = biological target: GlcNAc(b1-6)Gal(b1-4)GlcNAc
# In short: as §1
# [40] = biological target: GlcNAc(b1-6)GalNAc
# In short: as §1
# [41] = biological target: GlcNAc3Prop(b1-4)GlcNAc
# In short: as §1
# [42] = biological target: GlcNAc6S(b1-3)Gal(b1-4)GlcNAc
# In short: as §1
# [43] = biological target: Kdn(a2-3)Gal(b1-3)GalNAc
# In short: as §1
# [44] = biological target: Kdn(a2-3)Gal(b1-3)GlcNAc
# In short: as §1
# [45] = biological target: Kdn(a2-3)Gal(b1-4)Glc
# In short: as §1
# [46] = biological target: Kdn(a2-3)Gal(b1-4)GlcNAc
# In short: as §1
# [47] = biological target: Kdn(a2-3)Gal(b1-4)[Fuc(a1-3)]GlcNAc
# In short: as §1
# [48] = biological target: Kdn(a2-6)Gal(b1-4)GlcNAc
# In short: as §1
# [49] = biological target: Man(a1-2)Man(a1-2)Man(a1-3)Man
# In short: as §1
# [50] = biological target: Man(a1-2)Man(a1-2)Man(a1-6)[Man(a1-3)]Man
# In short: as §1
# [51] = biological target: Man(a1-2)Man(a1-3)Man
# In short: as §1
# [52] = biological target: Man(a1-2)Man(a1-3)[Man(a1-2)Man(a1-6)]Man
# In short: as §1
# [53] = biological target: Man(a1-2)Man(a1-3)[Man(a1-2)Man(a1-6)]Man(a1-6)[Man(a1-2)Man(a1-2)Man(a1-3)]Man
# In short: as §1
# [54] = biological target: Man(a1-2)Man(a1-3)[Man(a1-2)Man(a1-6)]Man(a1-6)[Man(a1-2)Man(a1-2)Man(a1-3)]Man(b1-4)GlcNAc(b1-4)GlcNAc
# In short: as §1
# [55] = biological target: Man(a1-2)Man(a1-3)[Man(a1-6)]Man(a1-6)[Man(a1-2)Man(a1-3)]Man(b1-4)GlcNAc(b1-4)GlcNAc
# In short: as §1
# [56] = biological target: Man(a1-2)Man(a1-6)[Man(a1-3)]Man(a1-6)[Man(a1-2)Man(a1-2)Man(a1-3)]Man
# In short: as §1
# [57] = biological target: Man(a1-2)Man(a1-6)[Man(a1-3)]Man(a1-6)[Man(a1-2)Man(a1-2)Man(a1-3)]Man(b1-4)GlcNAc(b1-4)GlcNAc
# In short: as §1
# [58] = biological target: Man(a1-3)[Man(a1-6)]Man
# In short: as §1
# [59] = biological target: Man(a1-3)[Man(a1-6)]Man(a1-6)[Man(a1-2)Man(a1-3)]Man(b1-4)GlcNAc(b1-4)GlcNAc
# In short: as §1
# [60] = biological target: Man(a1-3)[Man(a1-6)]Man(a1-6)[Man(a1-3)]Man
# In short: as §1
# [61] = biological target: Man(a1-3)[Man(a1-6)]Man(a1-6)[Man(a1-3)]Man(b1-4)GlcNAc(b1-4)GlcNAc
# In short: as §1
# [62] = biological target: Man(a1-3)[Man(a1-6)]Man(b1-4)GlcNAc(b1-4)GlcNAc
# In short: as §1
# [63] = biological target: Man(a1-6)Man
# In short: as §1
# [64] = biological target: Man(b1-4)GlcNAc
# In short: as §1
# [65] = biological target: Neu5Ac(a2-3)Gal
# In short: as §1
# [66] = biological target: Neu5Ac(a2-3)Gal(b1-3)GalNAc
# In short: as §1
# [67] = biological target: Neu5Ac(a2-3)Gal(b1-3)GalNAc(b1-3)Gal(a1-4)Gal(b1-4)Glc
# In short: as §1
# [68] = biological target: Neu5Ac(a2-3)Gal(b1-3)GalNAc(b1-3)Gal(b1-4)GlcNAc
# In short: as §1
# [69] = biological target: Neu5Ac(a2-3)Gal(b1-3)GalNAc(b1-4)[Neu5Ac(a2-3)]Gal(b1-4)Glc
# In short: as §1
# [70] = biological target: Neu5Ac(a2-3)Gal(b1-3)GalNAc6S
# In short: as §1
# [71] = biological target: Neu5Ac(a2-3)Gal(b1-3)GlcNAc
# In short: as §1
# [72] = biological target: Neu5Ac(a2-3)Gal(b1-3)GlcNAc(b1-3)Gal(b1-3)GlcNAc
# In short: as §1
# [73] = biological target: Neu5Ac(a2-3)Gal(b1-3)GlcNAc6S
# In short: as §1
# [74] = biological target: Neu5Ac(a2-3)Gal(b1-3)[Fuc(a1-4)]GlcNAc
# In short: as §1
binder,measurement,setting,value
B1,glycan array binding signal (z-score),[1],5.32
same,glycan array binding signal (z-score),[2],0.464
same,glycan array binding signal (z-score),[3],-0.263
same,glycan array binding signal (z-score),[4],-0.343
same,glycan array binding signal (z-score),[5],-0.333
same,glycan array binding signal (z-score),[6],-0.332
same,glycan array binding signal (z-score),[7],-0.355
same,glycan array binding signal (z-score),[8],-0.209
same,glycan array binding signal (z-score),[9],-0.271
same,glycan array binding signal (z-score),[10],-0.323
same,glycan array binding signal (z-score),[11],-0.065
same,glycan array binding signal (z-score),[12],0.223
same,glycan array binding signal (z-score),[13],-0.441
same,glycan array binding signal (z-score),[14],-0.171
same,glycan array binding signal (z-score),[15],-0.207
same,glycan array binding signal (z-score),[16],-0.05
same,glycan array binding signal (z-score),[17],0.158
same,glycan array binding signal (z-score),[18],-0.348
same,glycan array binding signal (z-score),[19],-0.233
same,glycan array binding signal (z-score),[20],-0.274
same,glycan array binding signal (z-score),[21],-0.123
same,glycan array binding signal (z-score),[22],-0.526
same,glycan array binding signal (z-score),[23],-0.406
same,glycan array binding signal (z-score),[24],-0.397
same,glycan array binding signal (z-score),[25],-0.342
same,glycan array binding signal (z-score),[26],-0.207
same,glycan array binding signal (z-score),[27],-0.46
same,glycan array binding signal (z-score),[28],-0.302
same,glycan array binding signal (z-score),[29],-0.349
same,glycan array binding signal (z-score),[30],-0.335
same,glycan array binding signal (z-score),[31],-0.367
same,glycan array binding signal (z-score),[32],-0.467
same,glycan array binding signal (z-score),[33],-0.391
same,glycan array binding signal (z-score),[34],-0.358
same,glycan array binding signal (z-score),[35],-0.031
same,glycan array binding signal (z-score),[36],-0.361
same,glycan array binding signal (z-score),[37],-0.42
same,glycan array binding signal (z-score),[38],-0.416
same,glycan array binding signal (z-score),[39],-0.344
same,glycan array binding signal (z-score),[40],-0.398
same,glycan array binding signal (z-score),[41],-0.231
same,glycan array binding signal (z-score),[42],-0.17
same,glycan array binding signal (z-score),[43],-0.147
same,glycan array binding signal (z-score),[44],-0.31
same,glycan array binding signal (z-score),[45],-0.228
same,glycan array binding signal (z-score),[46],-0.211
same,glycan array binding signal (z-score),[47],-0.128
same,glycan array binding signal (z-score),[48],-0.213
same,glycan array binding signal (z-score),[49],-0.25
same,glycan array binding signal (z-score),[50],-0.351
same,glycan array binding signal (z-score),[51],-0.3
same,glycan array binding signal (z-score),[52],-0.181
same,glycan array binding signal (z-score),[53],-0.381
same,glycan array binding signal (z-score),[54],-0.34
same,glycan array binding signal (z-score),[55],-0.288
same,glycan array binding signal (z-score),[56],-0.407
same,glycan array binding signal (z-score),[57],-0.382
same,glycan array binding signal (z-score),[58],-0.372
same,glycan array binding signal (z-score),[59],-0.178
same,glycan array binding signal (z-score),[60],-0.439
same,glycan array binding signal (z-score),[61],-0.201
same,glycan array binding signal (z-score),[62],0.113
same,glycan array binding signal (z-score),[63],-0.331
same,glycan array binding signal (z-score),[64],-0.358
same,glycan array binding signal (z-score),[65],-0.257
same,glycan array binding signal (z-score),[66],-0.226
same,glycan array binding signal (z-score),[67],-0.295
same,glycan array binding signal (z-score),[68],-0.267
same,glycan array binding signal (z-score),[69],-0.159
same,glycan array binding signal (z-score),[70],-0.365
same,glycan array binding signal (z-score),[71],-0.286
same,glycan array binding signal (z-score),[72],-0.389
same,glycan array binding signal (z-score),[73],-0.258
same,glycan array binding signal (z-score),[74],-0.248
